Reference: a compilation of properties of binary mixtures (doi:10.1021/acs.jpcc.9b06000)
Some of these densities may be calculated back from excess volumes.

Experiment: xn = mol fraction of the nth substance listed
Conditions: 101 kPa

CCCC[N+]1(C)CCCC1.FC(F)(F)C(F)(F)[P-](F)(F)(F)(C(F)(F)C(F)(F)F)C(F)(F)C(F)(F)F + FC1CC(F)(F)C(F)(F)C1(F)F
x1 = 1
Conditions | mass density [kg/m3]
298.1 K | 1587.7
303 K | 1582.4
308.1 K | 1577.1
313 K | 1571.9
318.1 K | 1566.6
323 K | 1561.4

FC1CC(F)(F)C(F)(F)C1(F)F (stereo not drawn) + CCCC[N+]1(C)CCCC1.FC(F)(F)C(F)(F)[P-](F)(F)(F)(C(F)(F)C(F)(F)F)C(F)(F)C(F)(F)F
mass density [kg/m3]
Conditions | 298.1 K | 303 K | 308.1 K | 313 K | 318.1 K | 323 K
x2 = 0 | – | 1562.9 | 1552 | 1541 | 1529.9 | 1518.7
x2 = 0.0173 | 1579.6 | 1569.3 | 1559 | 1548.5 | 1538 | –
x2 = 0.0358 | 1582.5 | – | 1562.7 | 1552.7 | 1542.6 | 1532.4
x2 = 0.077 | 1587.5 | 1578.4 | 1569.3 | 1560.1 | 1550.9 | 1541.7
x2 = 0.1252 | – | – | 1573.2 | 1564.7 | – | 1547.7
x2 = 0.1821 | 1591.4 | – | – | 1568 | 1560.1 | 1552.2
x2 = 0.2503 | 1591.2 | – | – | 1569.9 | 1562.5 | 1555.3
x2 = 0.3337 | – | 1583.4 | 1576.6 | 1569.8 | 1563.1 | 1556.3
x2 = 0.4379 | 1588.4 | 1582.1 | 1575.7 | 1569.4 | 1563.1 | 1556.7
x2 = 0.6542 | 1585.7 | – | – | 1568.4 | 1562.6 | 1556.8
x2 = 0.8395 | 1583.7 | 1578.2 | 1572.7 | 1567.3 | 1561.9 | –
